Screen size: about 110,000 compounds; about 230 (0.21%) showed an effect of 50% or more. The list shows a part of the results.
Each molecule was assayed against DPAP1 (Plasmodium falciparum, UniProt Q8IIJ9) (assay: primary screen, percent inhibition; read by cleavage of a fluorogenic dipeptide substrate; higher = more effect of the substance).
Design: species or system P. falciparum D10 trophozoite lysates; single well
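Further: 30 min substrate incubation versus DMSO and 10 µM JCP410 controls.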

Sequence of DPAP1 (Q8IIJ9 whole entry, looked up): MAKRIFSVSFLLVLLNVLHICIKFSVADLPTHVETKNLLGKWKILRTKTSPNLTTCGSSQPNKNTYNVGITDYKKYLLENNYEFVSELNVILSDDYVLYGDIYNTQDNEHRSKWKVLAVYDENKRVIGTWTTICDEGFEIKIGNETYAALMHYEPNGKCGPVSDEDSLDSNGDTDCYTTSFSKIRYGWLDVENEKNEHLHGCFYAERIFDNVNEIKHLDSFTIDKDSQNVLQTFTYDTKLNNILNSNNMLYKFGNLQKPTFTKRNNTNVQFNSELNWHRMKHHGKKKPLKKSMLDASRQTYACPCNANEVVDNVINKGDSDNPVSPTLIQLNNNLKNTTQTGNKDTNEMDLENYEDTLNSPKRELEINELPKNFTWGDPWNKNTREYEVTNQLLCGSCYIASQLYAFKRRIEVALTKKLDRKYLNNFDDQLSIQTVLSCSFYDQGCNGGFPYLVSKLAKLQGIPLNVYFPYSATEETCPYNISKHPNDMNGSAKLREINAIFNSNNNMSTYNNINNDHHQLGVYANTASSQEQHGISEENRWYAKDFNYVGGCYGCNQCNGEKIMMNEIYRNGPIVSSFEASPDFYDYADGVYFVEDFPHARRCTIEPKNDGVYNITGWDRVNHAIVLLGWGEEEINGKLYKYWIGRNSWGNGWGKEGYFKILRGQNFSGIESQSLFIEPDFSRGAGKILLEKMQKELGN

Structure (SMILES)	% Inhibition @ 10 uM
O=C(Nc1ccccc1C(=O)NCCCO)c1cccs1	-0.28%
O=C(NC1CC1)c1cc(-n2cnnc2)ccc1Cl	2.72%
N#CCNC(=O)[C@@H](O)CS(=O)(=O)Cc1ccccc1OC(F)F	-6.98%
CCC1CCc2c(O)nc3ccccc3c2O1 (centres unmarked)	0.385%
CCOc1cccc2c1OC1(C)CC2NC(=O)N1Cc1ccccc1 (centres unmarked)	-1.92%
Cc1[nH]c2ccccc2c1C(=O)/C=C/c1ccccc1Cl	-2.03%
O=C1C(/C=N/CCCNC2CCCCC2)=C(O)c2ccccc21	-0.105%
CC(C)(C)N1CC2(c3ccccc3)CN(C(C)(C)C)CC(c3ccccc3)(C1)C2=O	-1.31%
COc1cc(CC2(CCc3ccncc3)C(=O)NC(=O)NC2=O)ccc1OCc1ccccc1	1.03%
O=C(CCc1nnc2ccc(N3CCCCC3)nn12)N1CCC2(CC1)OCCO2	5.05%
O=C1C2C3CCC(C3)C2C(=O)N1c1ccc(Cl)cc1 (centres unmarked)	4.07%
O=C1NC(=O)C(=Cc2ccc(C=C3C(=O)NC(=O)NC3=O)cc2)C(=O)N1	-0.0369%
CNC(=O)C1CC(=O)N(CCc2ccc(C)cc2)C1 (centres unmarked)	-3.58%
Cc1nn(-c2ccccn2)c2c1C(Cl)=C(C#N)CC2	2.57%
Cc1cc(C)n2nc(C(=O)NCc3ccccc3)c(Br)c2n1	-1.5%
O=C(NCC1CCCO1)c1cccc(N2C(=O)c3ccc(Br)cc3C2=O)c1 (centres unmarked)	3.87%
CCSC1=NC2(CCN(S(=O)(=O)c3ccccc3)CC2)N=C1c1ccccc1	-3.23%
C#CCn1cc(/C=C(/C#N)C(=O)Nc2ccc(Cl)cc2)c2ccccc21	5.31%
COc1ccc(CCNC(=O)Cc2ccc3c(c2)OCO3)cc1OC	4.11%
COC(=O)C1=CN(C(C)C)C=C(C(=O)OC)C1c1ccc(Cl)cc1	1.86%
CC(=O)Nc1ccc(S(=O)(=O)N(C2CCCCC2)C2CCCCC2)cc1	-2.56%
Cc1ccc(-n2ncc(C(=O)NC3CC3)c2C2CCN(C(=O)OC(C)(C)C)CC2)c(C)c1	-5.19%

Structure (SMILES)	% Inhibition @ 10 uM
Cc1c2c(nc3c(C(=O)NC4CCCC4)cnn13)CCCC2	-7.73%
O=S(=O)(c1ccccc1)c1cnc2ccc(Cl)cc2c1N1CCOCC1	-1.85%
Cc1cccc(/C=C2\SC(=O)N(C)C2=O)c1	2.17%
O=C(COc1ccc2ccccc2c1Br)N1CCCC1	4.49%
COc1cc(/C=c2/sc3n(c2=O)C(c2ccccc2OC)C(C(C)=O)=C(C)N=3)ccc1O (centres unmarked)	3.24%
Cc1cccc(NC(=O)/C(=C\c2ccco2)NC(=O)c2ccsc2)c1	4.67%
Cc1oc2ccc(OCC(=O)C(C)(C)C)cc2c1C(=O)OC(C)C	1.37%
O=C(CSc1nc2cccnc2[nH]1)c1c[nH]c2ccccc12	-1.75%
CC1CC(C)(C)NC(=S)N1CC(=O)N(C)Cc1ccccc1 (centres unmarked)	-2.4%
O=C(CCCc1ccccc1)Nc1cccc(Br)c1	-0.712%
Cc1nc2ccc(S(=O)(=O)NCC(=O)Nc3ccccn3)cc2s1	-2.45%
Cc1cc(NO)nc(-c2ccc(Br)cc2)n1	0.215%
COc1ccc(S(=O)(=O)N2CCNCC2)cc1OC	-4.19%
COc1ccccc1NC(=O)c1ccccc1N(C)S(C)(=O)=O	1.84%
CCN(CC)C(=O)C1CCCc2c1[nH]c1ccc(Cl)cc21 (centres unmarked)	-3.77%
CC(CCc1ccccc1)NC(=O)CCc1nnc2ccc(N3CCOCC3)nn12 (centres unmarked)	-3.1%
CC1(C)CC(=O)C2=C(C1)OC(N)=C(C#N)C2c1ccccc1OCc1ccc(F)cc1 (centres unmarked)	0.674%
NC(=O)C1CCN(Cc2cccc(Cl)c2)CC1	-7.34%
CN(C)c1ccc(-c2ncnn2-c2cccc(O)c2)cc1	-0.233%
c1ccc(-c2nc3c4ccccc4nc(N4CCc5ccccc5C4)n3n2)cc1	2.6%
O=C(Cn1sc2ccccc2c1=O)N1CCN(c2ccccn2)CC1	1.46%
Cc1cccc(Oc2ccc(NC(=O)C3CCCCC3C(=O)O)cc2)c1 (centres unmarked)	1.34%

Structure (SMILES)	% Inhibition @ 10 uM
c1ccc2c(c1)oc1c(N3CCCCC3)ncnc12	-0.617%
CCOC(=O)C1=C(O)/C(=C\c2ccc(C(=O)OC)cc2)N=C1C	-7.23%
CC(C)C[C@H](NC(=O)CNC(=O)c1ccccc1)C(=O)NCC#N	-1.82%
O=C(Nc1cccnc1Cl)c1ccc2c(Cl)c3c(nc2c1)CCCC3	1.38%
COc1ccc(C(C)NCc2ccncc2)cc1 (centres unmarked)	-9.67%
COc1ccc(OCC(=O)Nc2cc3oc4ccccc4c3cc2OC)cc1	-2.73%
COc1ccc(OC)c(/C=C2/S/C(=N\c3ccccc3)N(C)C2=O)c1	4.56%
CC(C)(C)c1nc(CN2CCOCC2)ccc1O	-4.61%
COc1ccc(/C=C/C(=O)c2cccc([N+](=O)[O-])c2)cc1	1.7%
O=C(CN1CCN(C(=O)c2ccco2)CC1)Nc1c2c(nc3ccccc13)CCC2	-1.91%
COCCNC(=O)CN(C)S(=O)(=O)c1c(C)cc(C)cc1C	4.44%
CCN(CC)CCN(C)Cc1ccc([N+](=O)[O-])cc1	0.162%
CC(C)C[C@H](NC(=O)C1CCCCCC1)C(=O)NCC#N	-6.46%
COc1cc(/C=C2/C(=N)N3C(C)=CSC3=NC2=O)ccc1OCc1cc(=O)n2nc(C)sc2n1	-3.95%
Cc1cc(=O)n(CC(=O)NC2CCCCC2)c2c1c(C)nn2-c1cccc(F)c1	-3.6%
O=S(=O)(c1ccccc1)N1CCC2(Cl)CCCCC2C1c1ccccc1 (centres unmarked)	-3.53%
CC1CCN(C(=O)c2nn(C)c3c2CSc2ccccc2-3)CC1	0.00665%
O=C(O)c1ccc(NC(=O)c2cccc3c2-c2ccccc2C3=O)cc1	0.219%
CCOC(=O)c1c(CSc2ccccc2)n(C)c2ccc(O)c(CN3CCN(C)CC3)c12	9.47%
O=C(Nc1cc(Cl)c(Cl)cc1Cl)c1ccccc1F	1.26%
COc1ccc2nc(NC(=O)C3CCCN(c4ncnc5c4nc4n5CCCCC4)C3)sc2c1 (centres unmarked)	7.61%
